# Results taken from the supplement of paper PMC4466236.
# The full ranking holds about 33,000 sequences; the median of “E-score (dimensionless, -0.5 to 0.5)” is about -0.058, and the highest 2% start at about 0.35. This is one part of the list.
# Tested on: MvaT
# Experiment: PBM 8-mer E-score (mean of HK and ME arrays) (E-score (dimensionless, -0.5 to 0.5)); higher = stronger relative binding preference; most listed sequences are background and not binding sites
# Procedure, shortened: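 Full-length P. aeruginosa MvaT, with glutathione S-transferase fused to its N-terminus (cloned into pTH6838 by isothermal assembly), was tested by protein binding microarray using a previously described protocol. Two universal double-stranded 60-mer arrays (ME and HK) were used, each with a constant 25-mer primer region and a variable 35-mer region covering all 8-mers. The rank-based 8-mer E-score (-0.5 to 0.5) is the mean of the two arrays, parsed with a custom Python script.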
row,Sequence,PBM 8-mer E-score
1,GTGCGCCA,-0.027
2,ATACGCTA,0.178
3,AGACGGAG,-0.121
4,GATATGAA,0.156
5,CACAGCGA,-0.00654
6,CCGTTACC,-0.161
7,GTCGAATA,0.112
8,CATAATGG,0.178
9,ATCTTAGA,0.00161
10,ATTATGTA,0.377
11,GTGACGCA,-0.144
12,AAGTATAC,0.338
13,ACGTCTGG,-0.0925
14,ACTCCCCC,-0.166
15,ACTTGAAC,0.184
16,CACTAATG,0.166
17,ACCAGTCT,-0.0601
18,ACTCTTCA,-0.0953
19,ACCGGTTG,-0.141
20,CGTCTCTC,-0.243
21,GTATCTAA,0.219
22,TCCGTACA,0.00932

row,Sequence,PBM 8-mer E-score
1,AGGCAGTA,0.106
2,TAACGAAA,0.297
3,GAACATAC,0.036
4,ACAAAAAC,0.131
5,GGCAACAC,-0.137
6,GACTACAA,0.0701
7,ACGAGCGA,-0.117
8,ATCTCGAC,0.0844
9,CGCAGATA,0.00677
10,GAATGGCA,-0.00364
11,CAGGAGGA,-0.275
12,ACAGTGCG,0.0644
13,GAGCGATA,-0.0344
14,ACTCCTCG,-0.125
15,CTAGTTGC,0.155
16,GCGCACAA,-0.00512
17,AAGAATAT,0.316
18,ACGGTGTA,-0.12
19,CGTCCCCC,-0.209
20,AGTCGTTA,0.0888
21,CCTTGTTA,-0.019
22,ATACCATC,0.0279

row,Sequence,PBM 8-mer E-score
1,ATCTGATG,0.0415
2,GCGGAAAC,-0.123
3,ATAATCGG,0.122
4,GCATGTGA,-0.202
5,CGACAGCA,-0.183
6,GACATGCA,-0.118
7,ATGGGTCG,-0.271
8,GTCGCATA,-0.0196
9,ACCTGAGT,-0.0838
10,AGGCCTTC,-0.249
11,CGACCTTC,-0.138
12,GATCTCGA,-0.173
13,ACTGGCAG,-0.263
14,AGATACAG,-0.0511
15,ACACGCAG,-0.19
16,GGGATAAA,0.157
17,GGTCAAAC,-0.0373
18,CCCTCGCA,-0.13
19,GCAACTGA,-0.105
20,GCTCAGAA,-0.154
21,GTCGGAAC,-0.121
22,AGGATCCC,-0.274

row,Sequence,PBM 8-mer E-score
1,GCTCCTAA,-0.127
2,ACGCCTGC,-0.235
3,GCATCCGC,-0.291
4,ACTTTAAG,0.254
5,CCTTTTGC,-0.114
6,TATTAGGA,0.247
7,AAACAGAA,0.187
8,CCTCACTA,-0.21
9,ATCGGCCC,-0.0799
10,CGGCGTAA,-0.0379
11,CTCATACA,-0.105
12,AATTCCAA,0.206
13,CTTCCAGA,-0.133
14,AAGCAATG,-0.0923
15,GCGACGAA,0.145
16,ACGTAAAA,0.158
17,CCTTTAAA,0.211
18,AAGAGATT,0.0773
19,TAAGGCTA,0.0276
20,CCGCACGC,-0.31
